The list shows a part of the results. The main result of the screen is listed elsewhere. These columns were measured beside it and carry no call. Most of these compounds were active or inconclusive in the main read-out, so they are no random draw.
biological target: Chromobox protein homolog 7 (Homo sapiens) (UniProt O95931); assay: CBX7 chromodomain binding inhibitors, primary screen, biochemical, AlphaScreen (AID 1224903); settings: AlphaScreen His6-CBX7 / biotin-H3K27me3 peptide binding; measured here: z-score of CBX7 signal; stronger effect = lower value
UniProt O95931, sequence (O95931 whole entry, looked up): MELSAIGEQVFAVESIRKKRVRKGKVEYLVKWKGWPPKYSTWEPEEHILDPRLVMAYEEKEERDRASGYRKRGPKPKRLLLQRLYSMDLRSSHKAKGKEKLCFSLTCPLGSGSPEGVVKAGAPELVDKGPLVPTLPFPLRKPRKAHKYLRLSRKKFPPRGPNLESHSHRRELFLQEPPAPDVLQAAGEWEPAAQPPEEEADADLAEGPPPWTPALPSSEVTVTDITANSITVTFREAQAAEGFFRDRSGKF

Row | SMILES | z-score
1 | Oc1ccc(-c2nc(-c3ccccc3)c(-c3ccc(Oc4ccccc4)cc3)[nH]2)cc1O | -2.19
2 | CN(Cc1ccccc1)S(=O)(=O)c1ccc(C(=O)Nc2nnc(-c3ccc(F)cc3)o2)cc1 | -14.4
3 | CCOC(=O)c1cnc2ccc(OCC)cc2c1N1CCN(Cc2ccccc2)CC1 | -0.565
4 | Nc1nonc1-n1nnc(C(=O)O)c1CSc1nc2ccccc2o1 | -26.2
5 | O=C1CC(NCCN2CCOCC2)C(=O)N1c1ccc(Br)cc1 (stereo not drawn) | -8.2
6 | Cc1ccc(Nc2c(-c3c[nH]c4ccccc34)nc3ccc(Br)cn23)cc1 | -19.2
7 | Oc1cccc(-c2nc(-c3ccccc3)c(-c3ccc(F)cc3)[nH]2)c1 | -16.3
8 | O=C1C2=C(Nc3ccccc3SC2c2cccs2)c2ccccc21 (stereo not drawn) | -9.38
9 | CN(Cc1ccccc1)c1oc(COc2ccc(F)cc2)nc1C#N | -3.53
10 | COC(=O)c1c[nH]n2c(NC3CCC(C)CC3)c(-c3ccc(C)cc3)nc12 (stereo not drawn) | -0.865
11 | Cc1cccc(NC(=O)CSc2nccn2-c2cccc(Cl)c2)c1C | -1.88
12 | O=S(=O)(Nc1nccs1)c1ccc(Nc2nnc(-c3ccc(Cl)cc3)c3ccccc23)cc1 | -1.05
13 | CCCCN(CC)S(=O)(=O)c1ccc(C(=O)Nc2nnc(CC)o2)cc1 | -10.2
14 | CC(C)n1cnc2cc(NCc3ccc(Br)cc3)ccc21 | -17.9
15 | Cc1cccc(OCC(O)Cn2cnc3cc(C)c(C)cc32)c1 (stereo not drawn) | -18
16 | c1ccc(-c2csc(Nc3ccc4c(c3)OCO4)n2)cc1 | -6.96
17 | O=C1c2ccccc2C(Nc2cccnc2)N1c1cccnc1 (stereo not drawn) | -15.6
18 | O=C(Nc1nnc(-c2ccccc2)o1)c1ccc(Br)cc1 | -18.2
19 | CCOc1ccc(NC(=O)c2c(NCc3cccs3)sc3c2CCCCC3)cc1 | -7.81
20 | OC(COc1ccccc1Cl)Cn1cnc2ccccc21 (stereo not drawn) | -7.98

Row | SMILES | z-score
21 | CCOC(=O)c1cnc2ccc(OCC)cc2c1Nc1ccc(F)c(Cl)c1 | -0.678
22 | COc1ccc(-n2cnc3cc(NCc4nc5ccccc5n4C)ccc32)cc1 | -3.73
23 | c1ccc(-c2nc3ccccn3c2Nc2ccc3c(c2)OCCO3)nc1 | -8.91
24 | COc1ccc(CNc2ccc3c(c2)nc(C)n3Cc2ccccc2)cc1OC | -3.74
25 | CCC(=C(c1ccc(OC)cc1)c1ccc(OC)cc1)c1cn(CC(O)CN2CCN(C)CC2)c2ccccc12 (stereo not drawn) | -4.41
26 | COC(=O)c1c[nH]n2c(NC3CCC(C)CC3)c(-c3cccc(C)c3)nc12 (stereo not drawn) | -0.857
27 | Cc1ccn2c(Nc3ccccc3)c(-c3ccccn3)nc2c1 | -20.3
28 | O=C1Nc2ccccc2Oc2cc([N+](=O)[O-])cc(Oc3cccc(Cl)c3Cl)c21 | -5.72
29 | Cc1nnc(NC(=O)c2ccc(S(=O)(=O)N3CCCCCC3)cc2)o1 | -1.32
30 | COc1ccc(-c2cc(-c3c(O)c(OC)c4occc4c3OC)[nH]n2)cc1OC | -5.93
31 | Cc1cccc(C)c1Nc1c(-c2ccccn2)nc2ccc(Br)cn12 | -0.978
32 | Cc1ccccc1Nc1nc(-c2c(C)nc3sccn23)cs1 | -0.669
33 | O=C(CN1C(=O)CSc2ccccc21)NCCN1CCOCC1 | -9.01
34 | COc1cccc(-n2c(-c3ccc(C)cc3)cc3c2CC(C)(C)CC3=O)c1 | -6.49
35 | COc1ccc(CN2C(=O)c3cccnc3C2Nc2ccc(Br)c(C)c2)cc1 (stereo not drawn) | -10.9
36 | Cc1ccc2[nH]c(C)c(CCNS(=O)(=O)c3ccc(F)cc3)c2c1 | -0.545
37 | O=C(Nc1nnc(C2CC2)o1)c1ccc(S(=O)(=O)N2CCOCC2)cc1 | -5.36
38 | CCc1nnc(NC(=O)c2ccc(S(=O)(=O)N(CCC#N)CCC#N)cc2)o1 | -10.4
39 | COc1ccc(-c2n[nH]c(C)c2-c2ccc3c(c2)OCCCO3)c(O)c1 | -0.961
40 | Brc1ccc(-c2csc(Nc3ccc4c(c3)OCO4)n2)cc1 | -7.17

Row | SMILES | z-score
41 | COc1ccccc1CNc1ccc2c(c1)ncn2-c1ccc(C)cc1 | -3.66
42 | Cc1ccn2c(Nc3ccc4c(c3)OCO4)c(-c3ccccn3)nc2c1 | -25.7
43 | CC(C)(C)c1ccc2c(c1)N(CC(=O)NCc1cccs1)C(=O)CO2 | -14
44 | CS(=O)(=O)Nc1ccc(Cl)c2cccnc12 | -21.2
45 | CCCn1cc(C2CC(=O)N(c3ccccc3C)C2=O)c2ccccc21 (stereo not drawn) | -15.8
46 | CCCc1cc(-c2[nH]ncc2-c2ccc3c(c2)OCCO3)c(O)cc1OC | -15.1
47 | CCN(CC)S(=O)(=O)c1ccc(C(=O)Nc2nnc(COC)o2)cc1 | -1.29
48 | CC(C)(c1ccccc1)c1ccc(OCCN2CCOCC2)cc1 | -10.2
49 | Cc1cc2ncn(CC(O)COC3CCCCC3)c2cc1C (stereo not drawn) | -18
50 | O=C(CSc1nccn1-c1ccc(Cl)cc1)Nc1cccc(C(F)(F)F)c1 | -1.94
51 | CN(C)S(=O)(=O)c1ccc(C(=O)Nc2nnc(-c3ccc(F)cc3)o2)cc1 | -4.21
52 | O=C1CN(C(=O)COc2ccccc2)C(c2ccccc2)c2cc(Br)ccc2N1 (stereo not drawn) | -4.99
53 | COc1cccc(Nc2nc(-c3ccc(F)cc3)cs2)c1 | -3.82
54 | COc1cccc(-c2nc(-c3ccccc3)c(-c3cc([N+](=O)[O-])ccc3C)[nH]2)c1OC | -0.628
55 | CN(C)c1ccc(Nc2nc(-c3ccccc3)cs2)cc1 | -8.32
56 | CCCc1cc(-c2[nH]ncc2-c2ccc3c(c2)OCCCO3)c(O)cc1OC | -0.927
57 | CCCCOc1ccc(-c2nc3c(C(=O)OC)c[nH]n3c2NC2CCCCC2)cc1 | -16.1
58 | O=C(Nc1nc(-c2ccccn2)cs1)c1cccc(Oc2ccccc2)c1 | -17.5

Source: PubChem BioAssay AID1224903 (Bradner/Qi Labs at DFCI, 2016)
